{"source": "PubChem BioAssay AID602179", "about": "(National Center for Advancing Translational Sciences (NCATS), 2012)", "note": "The whole screen tested about 390,000 compounds, of which about 360 (0.092%) were called active. Inconclusive means that the source gave no clear call. Such entries were picked first, then a sample of the others. The call rests on the fitted dose curve; in most records, active means well fitted inhibition curve with a large enough effect; inconclusive means small, poorly fitted or top-dose-only effect; inactive means no such curve, though single readings can be large or run the other way. A potency beside an inconclusive call is a rough fit, not a confirmed value. On the % scale 0 is the no-effect control and ±100 the full control effect; potency means the concentration at half of the fitted maximal effect; tags describe the fitted curve by direction and shape."}
{"target": "Isocitrate dehydrogenase [NADP] cytoplasmic (Homo sapiens) (UniProt O75874)", "experiment": "qHTS for Inhibitors of mutant isocitrate dehydrogenase 1 (IDH1): qHTS; further: nearly all actives have a fitted effect of over 65% in size", "conditions": "IDH1-R132H enzyme, NADPH consumption, diaphorase/resazurin fluorescence; series mostly up to 76.6 µM; activity change, negative = inhibition: at the top concentration", "procedure,_shortened": "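IDH1-R132H (0.5 ug/mL) preincubated 30 min with compound, then NADPH (0.016 mM) and alpha-KG (2 mM) added; 80 min at RT, pH 7.5. Remaining NADPH coupled via diaphorase/resazurin to fluorescence (540/590 nm); concentration-response curves normalized to no-enzyme control.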"}
{"compound": "CC(=O)c1ccc(NC(=O)c2sc3nc(N4CCOCC4)c4c(c3c2N)CCCC4)cc1", "Potency": "inconclusive: 14.7 µM [inhibitor, full curve]"}
{"compound": "COc1ccc(N(Cc2ccccc2)S(=O)(=O)c2cccc(C(=O)Nc3ncccc3C)c2)cc1", "activity change, negative = inhibition": "inactive: -5.7%"}
{"compound": "Cc1ccc2nc(N3C(=O)C(O)=C(C(=O)c4ccco4)C3c3cccc(O)c3)sc2c1", "note": "(stereo not given)", "Potency": "inconclusive: 46.5 µM [inhibitor, partial curve]"}
{"compound": "CCCc1nc2ccccc2n2c(-c3ccc(C)cc3)c3c(=O)n(C)c(=O)n(C)c3c12", "Potency": "inconclusive: 44.7 µM [inhibitor, single point]"}
{"compound": "CSc1nn(Cc2ccc(Cl)cc2)c(N(C(C)=O)C(C)=O)c1S(=O)(=O)c1ccccc1", "Potency": "inconclusive: 50.1 µM [inhibitor, single point]"}
{"compound": "COc1cc(N(C(=O)Cc2cccs2)C(C(=O)NC2CCCCC2)c2cccc(OC)c2OC)ccc1-n1cnnn1", "note": "(stereo not given)", "Potency": "inconclusive: 46.5 µM [inhibitor, partial curve, poor fit]"}
{"compound": "Fc1cc(Br)ccc1Nc1c2c(nc3nc(-c4cccs4)nn13)CCCC2", "Potency": "inconclusive: 39.8 µM [inhibitor, partial curve]"}
{"compound": "Cc1ccc(NC(=O)Cn2cc3c(n2)CCCCC3)cc1", "activity change, negative = inhibition": "inactive: 10.2%"}
{"compound": "Cc1ccc(C)c(Nc2nc3c(S(=O)(=O)c4ccc(C(C)C)cc4)nnn3c3ccsc23)c1", "Potency": "inconclusive: 70.8 µM [inhibitor, single point]"}
{"compound": "Cc1ccc(Sc2ccc(NC(=O)CCl)cc2)cc1C", "Potency": "inconclusive: 52.1 µM [inhibitor, partial curve]"}
{"compound": "COc1cccc(CC(NC(C)=O)C(=O)NC2CCN(C(=O)C3CCCCC3)CC2)c1OC", "note": "(stereo not given)", "activity change, negative = inhibition": "inactive: 1.1%"}
{"compound": "COc1ccc(CNS(=O)(=O)c2c(C)[nH]c(C)c2C(=O)N2CCCC2)cc1", "Potency": "inconclusive: 52.1 µM [inhibitor, partial curve, poor fit]"}
{"compound": "COC(=O)c1ccc(Cn2cnc3c(sc4nc(N5CCOCC5)c5c(c43)CCCC5)c2=O)o1", "Potency": "inconclusive: 23.3 µM [inhibitor, single point]"}
{"compound": "Cc1cc(C)n(-c2nc3ccccc3nc2N2CCN(S(=O)(=O)c3ccc4ccccc4c3)CC2)n1", "activity change, negative = inhibition": "inactive: 5.86%"}
{"compound": "CCN(C(=O)Cn1nc(Cc2cccnc2)c2ccccc2c1=O)c1ccccc1F", "activity change, negative = inhibition": "inactive: -21.3%"}
{"compound": "COCCCn1c(=O)/c(=C\\c2ccccc2OC(C)C)s/c1=C(/C#N)C(=O)Nc1ccc(C(=O)O)cc1", "Potency": "inconclusive: 46.5 µM [inhibitor, partial curve]"}
{"compound": "CC(=O)c1ccc(NC(=O)c2c3c(nc4ccccc24)C(=O)N(C2CCCCC2)C3)cc1", "Potency": "inconclusive: 63.1 µM [inhibitor, single point]"}
{"compound": "CC(=O)NC1C(=O)N(CCN2CCOCC2)c2ccc(F)cc21", "note": "(stereo not given)", "Potency": "inconclusive: 58.5 µM [inhibitor, single point]"}
{"compound": "Cc1ccc(-c2cc3c(n2-c2ccc(C(=O)O)cc2)CCCC3=O)cc1", "Potency": "inconclusive: 46.5 µM [inhibitor, partial curve]"}
{"compound": "Cc1cc(NC(=O)CCC(=O)N(c2ccccc2)C(C(=O)NC2CCCCC2)c2cccs2)no1", "note": "(stereo not given)", "Potency": "inconclusive: 36.9 µM [inhibitor, partial curve]"}
{"compound": "COc1ccc(C(=O)Nc2ccc3nc(C)sc3c2)cc1S(=O)(=O)N1CCOCC1", "activity change, negative = inhibition": "inactive: 14.9%"}
{"compound": "Cn1cncc1C#Cc1c(-c2ccsc2)sc2ccccc12", "Potency": "inconclusive: 44.7 µM [inhibitor, single point]"}
{"compound": "CCOc1cccc(N(C(=O)C2COc3ccccc3O2)C(C(=O)NC2CCCCC2)c2ccc(O)cc2)c1", "note": "(stereo not given)", "Potency": "inconclusive: 10.4 µM [inhibitor, full curve]"}
{"compound": "COc1ccc(-c2n[nH]c3c2C(c2ccc(Cl)cc2Cl)NC3=O)cc1", "note": "(stereo not given)", "Potency": "inconclusive: 50.1 µM [inhibitor, single point]"}
{"compound": "C#CCSc1nc2sc3c(c2c(=O)n1-c1cccc(OC)c1)CCN(C(C)=O)C3", "Potency": "inconclusive: 50.1 µM [inhibitor, single point]"}
{"compound": "CC(C)c1ccc(N2C(=O)/C(=C/N(C)C)SC2=S)cc1", "Potency": "active: 13.1 µM"}
{"compound": "COc1ccc(C)cc1NC(=O)CN1C(=O)CCc2cc(S(=O)(=O)N3CCOCC3)ccc21", "activity change, negative = inhibition": "inactive: 0.611%"}
{"compound": "OC1CCCN(c2c3c(nc4cc(-c5cccc(F)c5)nn24)CCCC3)C1", "note": "(stereo not given)", "Potency": "inconclusive: 26.1 µM [inhibitor, single point]"}
{"compound": "Cc1ccc(C(=O)Nc2ccc3c(c2)N(C)C(=O)c2ccccc2S3)cc1F", "activity change, negative = inhibition": "inactive: -4.38%"}
{"compound": "O=C1Nc2ccc(Br)cc2/C1=C/C(=O)c1ccc2c(c1)OCO2", "Potency": "inconclusive: 58.5 µM [inhibitor, single point]"}
{"compound": "Cc1ccc(C(C(=O)NC2CCCC2)N(Cc2ccc(F)cc2)C(=O)c2snc(C(N)=O)c2N)o1", "note": "(stereo not given)", "Potency": "inconclusive: 26.1 µM [inhibitor, single point]"}
{"compound": "COc1ccccc1CN(C)C(=O)c1cc(-c2cc(OC)c(OC)c(OC)c2)nc2ccccc12", "Potency": "inconclusive: 58.5 µM [inhibitor, single point]"}
{"compound": "COc1ccc(-n2c(=O)c3c4c(sc3n(Cc3c(F)cccc3Cl)c2=O)CN(C(C)=O)CC4)cc1OC", "Potency": "inconclusive: 44.7 µM [inhibitor, partial curve]"}
{"compound": "CCOc1ccc(C2=C(C(C)=O)Sc3nnc(C)n3N2C(C)=O)cc1", "Potency": "inconclusive: 50.1 µM [inhibitor, partial curve, poor fit]"}
{"compound": "COc1ccc(C(=O)c2ccc(OC)c(OC)c2)cc1OC", "activity change, negative = inhibition": "inactive: 5.8%"}
{"compound": "COc1ccc(N(C)C(=O)c2ccc3c(Cl)c4c(nc3c2)CCCC4)c(OC)c1", "Potency": "inconclusive: 52.1 µM [inhibitor, partial curve]"}
{"compound": "COc1ccc(/C=C2/SC(=S)N(CCCC(=O)Nc3ccccc3C(=O)O)C2=O)cc1", "activity change, negative = inhibition": "inactive: -0.72%"}
{"compound": "Cc1ccc(Nc2c3c(nc4ccccc24)CCC3)cc1F", "Potency": "inconclusive: 50.1 µM [inhibitor, single point]"}
{"compound": "COC(=O)c1ccc(NC(=O)C(c2ccccc2)N2Cc3ccccc3C2=O)cc1", "note": "(stereo not given)", "Potency": "inconclusive: 50.1 µM [inhibitor, single point]"}
{"compound": "CCC(Sc1nc2n[nH]c(C)c2c(=N)n1-c1ccc(Br)cc1)C(=O)N(CC)CC", "note": "(stereo not given)", "Potency": "inconclusive: 50.1 µM [inhibitor, single point]"}
